# From PMC4336329 (PLoS ONE, 2015)
# Out of some 310,000 compounds screened, about 14,000 (4.5%) showed an effect of 50% or more. The effect is printed as a negative number. This is one part of the list.
# Biological target: human ether-à-go-go-related gene (hERG) potassium channel (human, UniProt Q12809)
# Assay: primary screen, population patch clamp on CHO cells stably expressing hERG
# 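Note: peak tail current of the secondary pulse compared with the same well before compound.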
# Sequence of human ether-à-go-go-related gene (hERG) potassium channel (Q12809 whole entry, looked up): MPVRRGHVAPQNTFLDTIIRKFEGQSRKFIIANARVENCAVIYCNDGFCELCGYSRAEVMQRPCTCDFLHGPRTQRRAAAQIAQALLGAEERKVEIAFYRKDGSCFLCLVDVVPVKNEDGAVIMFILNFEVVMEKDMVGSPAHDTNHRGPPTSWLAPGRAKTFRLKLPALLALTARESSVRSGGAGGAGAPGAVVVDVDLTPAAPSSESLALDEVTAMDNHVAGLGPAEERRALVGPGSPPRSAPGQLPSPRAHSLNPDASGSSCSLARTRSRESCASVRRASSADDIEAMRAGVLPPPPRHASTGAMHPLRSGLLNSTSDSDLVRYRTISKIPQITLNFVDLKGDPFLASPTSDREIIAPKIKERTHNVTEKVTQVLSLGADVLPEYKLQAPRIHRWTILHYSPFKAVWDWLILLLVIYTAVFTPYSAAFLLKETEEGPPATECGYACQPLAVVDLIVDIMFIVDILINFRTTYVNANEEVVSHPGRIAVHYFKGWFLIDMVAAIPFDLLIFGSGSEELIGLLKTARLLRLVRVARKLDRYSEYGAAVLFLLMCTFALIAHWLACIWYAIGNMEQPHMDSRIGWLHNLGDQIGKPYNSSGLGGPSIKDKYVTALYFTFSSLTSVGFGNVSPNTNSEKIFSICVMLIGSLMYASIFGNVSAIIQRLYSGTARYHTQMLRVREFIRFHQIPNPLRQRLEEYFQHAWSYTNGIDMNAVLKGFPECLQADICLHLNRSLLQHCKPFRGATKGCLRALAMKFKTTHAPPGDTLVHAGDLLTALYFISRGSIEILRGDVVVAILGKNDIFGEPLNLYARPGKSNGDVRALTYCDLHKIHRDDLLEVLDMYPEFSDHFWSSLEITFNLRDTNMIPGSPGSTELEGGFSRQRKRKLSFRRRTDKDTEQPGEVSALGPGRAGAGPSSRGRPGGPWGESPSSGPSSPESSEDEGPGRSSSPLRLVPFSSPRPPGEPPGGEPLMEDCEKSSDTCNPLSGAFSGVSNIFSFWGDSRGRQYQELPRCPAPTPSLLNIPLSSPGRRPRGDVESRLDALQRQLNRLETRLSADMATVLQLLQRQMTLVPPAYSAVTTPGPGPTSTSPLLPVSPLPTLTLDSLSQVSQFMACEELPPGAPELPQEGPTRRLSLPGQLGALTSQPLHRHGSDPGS
row,SMILES,"hERG current change (%, negative = inhibition) at 10uM"
1,Cc1ccc(C)c2[nH]c(=O)c(CN(Cc3ccco3)C(=O)Nc3ccccc3)cc12,1.89%
2,Cc1nc2ncnn2c(C)c1CCC(=O)NCc1ccccc1,-6.07%
3,Nn1c(SCc2ccc([N+](=O)[O-])cc2)nc2ccccc2c1=O,17.8%
4,CCOC(=O)c1oc2ccc(S(=O)(=O)n3nc(-c4ccc(C)cc4)cc3N)cc2c1C,9.07%
5,CN(CCOC(=O)c1ccc2c(c1)OCO2)C(C)(C)C.Cl,2.97%
6,Nc1ccc(C(=O)N/N=C/c2cccc(Oc3ccccc3)c2)cc1,-10.7%
7,CCC1(C)Cc2c(sc3c2c(=O)n(C)c2nnc(SCCc4ccccc4)n32)CO1 (stereo not drawn),-4.55%
8,CN1C(=O)NC(c2ccccc2)(C(F)(F)F)S/C1=C(/C#N)c1nnc(N2CCOCC2)n1-c1ccccc1 (stereo not drawn),-30.3%
9,CC(=O)C1=C(C)N2CCN=C2S1,12.7%
10,COc1ccccc1N(CC(=O)NCc1ccco1)C(=O)CCC(=O)Nc1ccccn1,11.6%
11,O=c1c2[nH]c3ccccc3c2ncn1C1CCCCC1,-4.08%
12,O=C(O)c1ccc(Oc2ccc(S(=O)(=O)c3ccc(C(=O)O)c(C(=O)O)c3)cc2)cc1,9.42%
13,CCOc1ccc(/C=C2\SC(N3CCCCC3)=NC2=O)cc1,-22.9%
14,CN(c1ccc(C(=O)N2CCCCC2)cc1)S(C)(=O)=O,10.6%
15,NC(=O)c1ccsc1NC(=O)COC(=O)CNC(=O)c1cccc([N+](=O)[O-])c1,-6.9%
16,CCOC(=O)NC(=O)COC(=O)c1ccc(O)cc1,-6.29%
17,COc1ccc2c(c1OC)C(=O)N(c1ccc(F)cc1)C2,8.71%
18,Cc1c(C(c2ccc(C(=O)O)cc2)c2c(C)n(C)n(-c3ccccc3)c2=O)c(=O)n(-c2ccccc2)n1C.Cl,19%
19,CC(=O)NC1CC2CCCC(C1)N2S(=O)(=O)c1cccc(F)c1 (stereo not drawn),7.44%
20,O=S(=O)(/N=C/c1c(O)ccc2ccccc12)c1cccs1,-0.442%
21,CCC1(C)CC(C(CC(=O)O)c2ccc(C)cc2)CCO1 (stereo not drawn),7.43%

row,SMILES,"hERG current change (%, negative = inhibition) at 10uM"
1,O=C(Nc1ccccc1N1CCOCC1)C1=COCCO1,2.46%
2,O=C(CN1CCOCC1)Nc1cccc(Cl)c1Cl,-20.3%
3,CCN(CC)S(=O)(=O)c1ccc(N2C(=O)Nc3ccccc3N2O)cc1,12.1%
4,Cc1cccc(C)c1NC(=O)CN(C)C(=O)c1ccccc1OCc1ccc(F)cc1,0.721%
5,C=CCOC(=O)c1ccc(-n2cnc(C)n2)nc1,0.952%
6,CCCc1c(C(=O)N2CCN(c3ccccc3OC)CC2)cnn1-c1ccccc1,4.94%
7,O=C(CCC(=O)N1CCN(c2ccc(O)cc2)CC1)c1cccs1,-3.11%
8,Cc1cc(C)c2c(N=NN3CCOCC3)[nH]nc2n1,-41.2%
9,O=C(NCCCN1CCOCC1)c1onc(CSc2nc3ccccc3[nH]2)c1C(=O)NCCCN1CCOCC1,15.9%
10,COc1ccc(N(CC(=O)N2CCN(Cc3ccccc3)CC2)S(C)(=O)=O)cc1,-3%
11,Cc1ccc(OCC(=O)NNC(=O)C(=O)N2CCCC2)c(C)c1,1.66%
12,O=C(Nc1cccnc1)C1CCN(S(=O)(=O)c2cccs2)CC1,33.7%
13,COC(=O)c1c(N)n(Cc2ccc(OC)cc2)c2nc3ccccc3nc12,-34.1%
14,COc1cc(/C=N/NC(=O)c2cc(-c3ccccc3)nc3ccccc23)ccc1O,6.54%
15,O=C1NC(=Nc2ccccc2)SC1Cc1cccc(Cl)c1Cl (stereo not drawn),-0.897%
16,CC1CCN(S(=O)(=O)c2cc(C(=O)NC3(C)CCS(=O)(=O)C3)ccc2Br)CC1 (stereo not drawn),-44.8%
17,O=[N+]([O-])c1cccc(-c2n[nH]c(=S)n2Cc2ccccc2)c1,4.24%
18,COC(=O)c1sccc1NN1C(=O)c2ccccc2C1=O,7.36%
19,COc1ccc(-c2nc(-c3cccnc3)no2)cc1,13.8%
20,Cc1onc(-c2ccccc2)c1CNC(=O)Nc1ccc(C(F)(F)F)cc1,14.9%
21,Cc1[nH]c(=O)[nH]c(=O)c1S(=O)(=O)N1CCCC(C(=O)N2CCN(c3cccc(C(F)(F)F)c3)CC2)C1 (stereo not drawn),15.6%
